According to patent US20240076343A1:
Values belong to the binder of their own block, whether it stands above or below them.

Tests used:
Experiment in all cases: cell-based or functional assay
[1] = molecular target: intermediate affinity hIL-2 receptor complex (IL-2Rβγ) (human) (UniProt P14784)
[2] = molecular target: high-affinity hIL-2 receptor (IL-2Rαβγ) on NK-92 cells (human) (UniProt P01589)
[3] = molecular target: intermediate affinity hIL-2 receptor complex (IL-2Rβγ) on TF1+IL-2Rβ cells (human) (UniProt P14784)
[4] = molecular target: high-affinity hIL-2 receptor (IL-2Rαβγ) (human) (UniProt P01589)

Fold change from rhIL-2 (TF1 + IL-2Rβ), pSTAT5 titration [1]: 0 fold | Fold change from hIL-2 (NK-92), fixed concentration pSTAT5 screen [2]: 10 fold | Fold change from rhIL-2 (NK-92) [2]: 142 fold | Fold change from hIL-2 (TF1 + IL-2Rβ), fixed concentration pSTAT5 screen [3]: 1 fold
B1: 1H3-hIgG1-L6-hIL-2 (T3A/F42A/Y45A/L72G/C125A) (protein)
heavy: EVQLVESGGGLVQPGRSLKLSCAVSGFTFSDYAMAWVRQAPKKGLEWVATISYDGSRTYYRDSVKGRFTISRDNAKITLYLQMDSLRSEDTATYYCARHGSGYFDYWGQGVMVTVSS[not shown - human IgG1 constant region]SGGGGSAPASSSTKKTQLQLEHLLLDLQMILNGINNYKNPKLTRMLTAKFAMPKKATELKHLQCLEEELKPLEEVLNGAQSKNFHLRPRDLISNINVIVLELKGSETTFMCEYADETATIVEFLNRWITFAQSIISTLT
light: DTVLTQSPALAVSPGERVTISCRASESVRTGVHWYQQKPGQQPKLLIYGASNLESGVPARFSGSGSGTDFTLTIDPVEADDTATYFCQQSWNDPFTFGSGTKLEIKRTVAAPSVFIFPPSDEQLKSGTASVVCLLNNFYPREAKVQWKVDNALQSGNSQESVTEQDSKDSTYSLSSTLTLSKADYEKHKVYACEVTHQGLSSPVTKSFNRGEC

Agonistic Activity (TF1 + IL-2Rβ), pSTAT5 titration [1]: 70% | Fold change from rhIL-2 (TF1 + IL-2Rβ), pSTAT5 titration [1]: 125 fold | Fold change from hIL-2 (NK-92) [2]: 11 fold | Agonistic Activity (NK-92), pSTAT5 titration [4]: 80% | Fold change from rhIL-2 (NK-92), pSTAT5 titration [4]: 532 fold | Fold change from hIL-2 (TF1 + IL-2Rβ) [3]: 4 fold
B2: 1H3-hIgG1-L6-hIL-2 (R38L/D20A) (protein)
heavy: EVQLVESGGGLVQPGRSLKLSCAVSGFTFSDYAMAWVRQAPKKGLEWVATISYDGSRTYYRDSVKGRFTISRDNAKITLYLQMDSLRSEDTATYYCARHGSGYFDYWGQGVMVTVSS[not shown - about 450 residues with a human IgG1 Fc and changes]
light: B1 light

Fold change from rhIL-2 (TF1 + IL-2Rβ), pSTAT5 titration [1]: 30 fold | Fold change from hIL-2 (NK-92) [2]: 10 fold | Fold change from rhIL-2 (NK-92), pSTAT5 titration [4]: > 10000 fold | Fold change from hIL-2 (TF1 + IL-2Rβ) [3]: 3 fold
B3: 1H3-hIgG1-L6-hIL-2 (D20Y/H16A) (protein)
heavy: EVQLVESGGGLVQPGRSLKLSCAVSGFTFSDYAMAWVRQAPKKGLEWVATISYDGSRTYYRDSVKGRFTISRDNAKITLYLQMDSLRSEDTATYYCARHGSGYFDYWGQGVMVTVSS[not shown - about 450 residues with a human IgG1 Fc and changes]
light: B1 light

Agonistic Activity (TF1 + IL-2Rβ), pSTAT5 titration [1]: 70% | Fold change from rhIL-2 (TF1 + IL-2Rβ), pSTAT5 titration [1]: 70 fold | Fold change from hIL-2 (NK-92) [2]: 13 fold | Agonistic Activity (NK-92), pSTAT5 titration [4]: 80% | Fold change from rhIL-2 (NK-92), pSTAT5 titration [4]: 619 fold | Fold change from hIL-2 (TF1 + IL-2Rβ) [3]: 3 fold
B4: 1H3-hIgG1-L6-hIL-2 (R38A/D20A) (protein)
heavy: EVQLVESGGGLVQPGRSLKLSCAVSGFTFSDYAMAWVRQAPKKGLEWVATISYDGSRTYYRDSVKGRFTISRDNAKITLYLQMDSLRSEDTATYYCARHGSGYFDYWGQGVMVTVSS[not shown - about 450 residues with a human IgG1 Fc and changes]
light: B1 light

Fold change from rhIL-2 (TF1 + IL-2Rβ), pSTAT5 titration [1]: 12 fold | Fold change from hIL-2 (NK-92) [2]: 11 fold | Fold change from rhIL-2 (NK-92), pSTAT5 titration [4]: > 10000 fold | Fold change from hIL-2 (TF1 + IL-2Rβ) [3]: 4 fold
B5: 1H3-hIgG1-L6-hIL-2 (D20Y/I92S) (protein)
heavy: EVQLVESGGGLVQPGRSLKLSCAVSGFTFSDYAMAWVRQAPKKGLEWVATISYDGSRTYYRDSVKGRFTISRDNAKITLYLQMDSLRSEDTATYYCARHGSGYFDYWGQGVMVTVSS[not shown - about 450 residues with a human IgG1 Fc and changes]
light: B1 light

Fold change from hIL-2 (NK-92) [2]: 13 fold | Fold change from hIL-2 (TF1 + IL-2Rβ) [3]: 1 fold
B6: 1H3-hIgG1-L6-hIL-2 (R38E/Q126A) (protein)
heavy: EVQLVESGGGLVQPGRSLKLSCAVSGFTFSDYAMAWVRQAPKKGLEWVATISYDGSRTYYRDSVKGRFTISRDNAKITLYLQMDSLRSEDTATYYCARHGSGYFDYWGQGVMVTVSS[not shown - about 450 residues with a human IgG1 Fc and changes]
light: B1 light

Agonistic Activity (TF1 + IL-2Rβ), pSTAT5 titration [1]: 90% | Fold change from rhIL-2 (TF1 + IL-2Rβ), pSTAT5 titration [1]: 124 fold | Fold change from hIL-2 (NK-92) [2]: 12 fold | Agonistic Activity (NK-92), pSTAT5 titration [4]: 80% | Fold change from rhIL-2 (NK-92), pSTAT5 titration [4]: 1070 fold | Fold change from hIL-2 (TF1 + IL-2Rβ) [3]: 3 fold
B7: 1H3-hIgG1-L6-hIL-2 (R38F/D20A) (protein)
heavy: EVQLVESGGGLVQPGRSLKLSCAVSGFTFSDYAMAWVRQAPKKGLEWVATISYDGSRTYYRDSVKGRFTISRDNAKITLYLQMDSLRSEDTATYYCARHGSGYFDYWGQGVMVTVSS[not shown - about 450 residues with a human IgG1 Fc and changes]
light: B1 light

Fold change from hIL-2 (NK-92) [2]: 12 fold | Fold change from hIL-2 (TF1 + IL-2Rβ) [3]: 0 fold
B8: 1H3-hIgG1-L6-hIL-2 (R38E/S130A) (protein)
heavy: EVQLVESGGGLVQPGRSLKLSCAVSGFTFSDYAMAWVRQAPKKGLEWVATISYDGSRTYYRDSVKGRFTISRDNAKITLYLQMDSLRSEDTATYYCARHGSGYFDYWGQGVMVTVSS[not shown - about 450 residues with a human IgG1 Fc and changes]
light: B1 light

Agonistic Activity (TF1 + IL-2Rβ), pSTAT5 titration [1]: 70% | Fold change from rhIL-2 (TF1 + IL-2Rβ), pSTAT5 titration [1]: 139 fold | Fold change from hIL-2 (NK-92) [2]: 13 fold | Agonistic Activity (NK-92), pSTAT5 titration [4]: 70% | Fold change from rhIL-2 (NK-92), pSTAT5 titration [4]: 2810 fold | Fold change from hIL-2 (TF1 + IL-2Rβ) [3]: 2 fold
B9: 1H3-hIgG1-L6-hIL-2 (R38G/D20A) (protein)
heavy: EVQLVESGGGLVQPGRSLKLSCAVSGFTFSDYAMAWVRQAPKKGLEWVATISYDGSRTYYRDSVKGRFTISRDNAKITLYLQMDSLRSEDTATYYCARHGSGYFDYWGQGVMVTVSS[not shown - about 450 residues with a human IgG1 Fc and changes]
light: B1 light

Agonistic Activity (TF1 + IL-2Rβ), pSTAT5 titration [1]: 70% | Fold change from rhIL-2 (TF1 + IL-2Rβ), pSTAT5 titration [1]: 121 fold | Fold change from hIL-2 (NK-92) [2]: 14 fold | Agonistic Activity (NK-92), pSTAT5 titration [4]: 70% | Fold change from rhIL-2 (NK-92), pSTAT5 titration [4]: 4500 fold | Fold change from hIL-2 (TF1 + IL-2Rβ) [3]: 3 fold
B10: 1H3-hIgG1-L6-hIL-2 (R38N/D20A) (protein)
heavy: EVQLVESGGGLVQPGRSLKLSCAVSGFTFSDYAMAWVRQAPKKGLEWVATISYDGSRTYYRDSVKGRFTISRDNAKITLYLQMDSLRSEDTATYYCARHGSGYFDYWGQGVMVTVSS[not shown - about 450 residues with a human IgG1 Fc and changes]
light: B1 light

Agonistic Activity (TF1 + IL-2Rβ), pSTAT5 titration [1]: 70% | Fold change from rhIL-2 (TF1 + IL-2Rβ), pSTAT5 titration [1]: 91 fold | Fold change from hIL-2 (NK-92) [2]: 14 fold | Agonistic Activity (NK-92), pSTAT5 titration [4]: 80% | Fold change from rhIL-2 (NK-92), pSTAT5 titration [4]: 4700 fold | Fold change from hIL-2 (TF1 + IL-2Rβ) [3]: 3 fold
B11: 1H3-hIgG1-L6-hIL-2 (R38Q/D20A) (protein)
heavy: EVQLVESGGGLVQPGRSLKLSCAVSGFTFSDYAMAWVRQAPKKGLEWVATISYDGSRTYYRDSVKGRFTISRDNAKITLYLQMDSLRSEDTATYYCARHGSGYFDYWGQGVMVTVSS[not shown - about 450 residues with a human IgG1 Fc and changes]
light: B1 light
